Experimental data as given in paper PMC8326117 (International Journal of Biological Sciences, 2021).
No end group written: not given here.

How the values were obtained:
SARS-CoV-2 S-protein = format: binding
[1] = test system: SARS-CoV-2 nucleocapsid protein (N-protein); format: binding

Substance: Biotinylated AYn1 (KKKKKKDKFNHEAEDLFY; also: biotinylated)
- protein-peptide interaction in pull-down (SARS-CoV-2 S-protein): strong protein-peptide interaction was observed in AYn1-immobilized condition

Substance: KKKKKKDKFNHEAEDLFY [AYn1]
- binding to N-protein [1]: no affinity to virus nucleocapsid protein (N-protein)
